# Measured values published in the supplement of paper PMC3334620.
# Over roughly 33,000 sequences, “E-score (-0.5 to 0.5)” has its median near -0.017; the highest 2% begin near 0.3. This is one part of the list.
# Target: T1, Sut1 (UniProt P53032)
# T1 sequence: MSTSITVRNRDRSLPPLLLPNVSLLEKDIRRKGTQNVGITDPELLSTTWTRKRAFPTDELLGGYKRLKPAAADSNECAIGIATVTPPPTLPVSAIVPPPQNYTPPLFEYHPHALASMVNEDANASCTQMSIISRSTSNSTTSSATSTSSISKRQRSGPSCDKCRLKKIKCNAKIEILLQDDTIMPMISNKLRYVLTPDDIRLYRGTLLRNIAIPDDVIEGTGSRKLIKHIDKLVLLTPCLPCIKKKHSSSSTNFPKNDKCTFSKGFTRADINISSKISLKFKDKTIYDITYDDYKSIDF
# Experiment: PBM E-score (8-mer binding enrichment) (E-score (-0.5 to 0.5)); higher = stronger / more preferred TF binding; most listed sequences are background and not binding sites
# Conditions: protein concentration: 200 nM; construct: GST-full length
# Summary of the method: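 Detection of bound protein used fluorescent anti-GST, with scans normalised by masliner. The proteins were GST-tagged yeast transcription factors applied at about 100-200 nM to universal all-10-mer Agilent arrays made double-stranded by primer extension. Each ungapped eight-base word, pooled with its reverse complement, was scored with an E-score from the Universal PBM Analysis Suite.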
row,Sequence,PBM E-score
1,GCCTGAAA,0.097
2,ACACACGG,-0.0326
3,GGGCGCCC,-0.191
4,CGTCGGAG,0.422
5,CTAATGCA,0.029
6,ATAAACCG,-0.0374
7,CACGTCTC,-0.0634
8,GTAGCCGA,-0.286
9,CACCTGCA,-0.187
10,GAACGTGA,0.0996
11,GCCTCGTA,-0.0323
12,ACAGACGC,-0.264
13,ACCCTTTC,-0.123
14,GACGCTCC,-0.00509
15,CATGCTAA,-0.137
16,ATTGTGGG,-0.0003
17,GCAGTCCA,-0.049
18,AGCGCGAT,-0.0871
19,GACCGCAC,-0.192
20,CTTATCGC,-0.0111
21,TGGCACCA,-0.182
22,ACGGTTCC,-0.136

row,Sequence,PBM E-score
1,ATGCGCCA,-0.164
2,AGACGTTC,-0.0869
3,CCAAACCG,0.0952
4,GTCAAGAC,-0.283
5,ACCTAAAG,-0.081
6,GCTCCGAC,0.267
7,ATTCTGCA,-0.00044
8,ATCTGGGC,-0.143
9,ATCGACTA,-0.0299
10,ACCCAAGG,-0.0883
11,TAACGGGA,0.00022
12,CAAGATGA,-0.187
13,TATCAGCA,-0.0103
14,ATCGAAAT,-0.0178
15,CTGTAATC,-0.115
16,AGAGATCA,-0.102
17,ACGGAACT,0.126
18,CAAGTTCG,-0.202
19,ACTCCGTA,0.478
20,AGACCAGC,-0.226
21,ATAATGGG,-0.0182
22,ATATGTAA,0.195

row,Sequence,PBM E-score
1,CAAGATAA,0.123
2,CGGACGAC,-0.0491
3,AACAGGAC,0.0542
4,AACCGCCG,0.0707
5,AGACAATG,0.0774
6,CGCCGTTC,-0.157
7,ACGATCGG,0.176
8,CCTGAGAC,-0.352
9,CATATATA,0.299
10,GAGCTACA,-0.127
11,AGGGACCC,-0.167
12,AGTAAAGC,0.00918
13,TCCTTTCA,0.0506
14,AAGAAAGT,0.174
15,AGGTGTCC,-0.263
16,ACTCTATA,0.128
17,CATCGTAA,0.173
18,ACTCACGC,-0.219
19,GGTCATCA,-0.105
20,AAATGCGC,0.177
21,GTGCAATA,0.00116
22,AACCGTTA,-0.146

row,Sequence,PBM E-score
1,GATAATGA,0.174
2,GACCCATA,0.101
3,CCACTACA,0.0189
4,CATTGCTA,0.119
5,CCTCTTAA,0.183
6,AGGGAGAA,-0.0707
7,CAACCAAA,0.132
8,ACAAGTAG,-0.117
9,AACTCTAC,-0.162
10,CGTAAGTA,0.177
11,AGATAAGC,0.0592
12,CTCACATC,0.00044
13,CCCAAAGG,-0.138
14,CCAATTCG,0.0655
15,ATTTCGCA,0.2
16,AAGGTCTG,0.0415
17,AGTAAGCC,-0.0588
18,GCAAGAAA,0.119
19,ATCGTATC,0.0239
20,AACTGCCG,0.00887
